Reference: the supplement of paper PMC3334620
Whole data set: some 33,000 sequences, median “E-score (-0.5 to 0.5)” near -0.012, cut for the highest 2% near 0.29. This is one part of the list.

What follows are sequences tested against T1, Ybr033w (UniProt P38073) (assay: PBM E-score (8-mer binding enrichment) (E-score (-0.5 to 0.5)); higher = stronger / more preferred TF binding; most listed sequences are background and not binding sites). Settings: protein concentration: 200 nM; construct: GST-full length.
T1 sequence: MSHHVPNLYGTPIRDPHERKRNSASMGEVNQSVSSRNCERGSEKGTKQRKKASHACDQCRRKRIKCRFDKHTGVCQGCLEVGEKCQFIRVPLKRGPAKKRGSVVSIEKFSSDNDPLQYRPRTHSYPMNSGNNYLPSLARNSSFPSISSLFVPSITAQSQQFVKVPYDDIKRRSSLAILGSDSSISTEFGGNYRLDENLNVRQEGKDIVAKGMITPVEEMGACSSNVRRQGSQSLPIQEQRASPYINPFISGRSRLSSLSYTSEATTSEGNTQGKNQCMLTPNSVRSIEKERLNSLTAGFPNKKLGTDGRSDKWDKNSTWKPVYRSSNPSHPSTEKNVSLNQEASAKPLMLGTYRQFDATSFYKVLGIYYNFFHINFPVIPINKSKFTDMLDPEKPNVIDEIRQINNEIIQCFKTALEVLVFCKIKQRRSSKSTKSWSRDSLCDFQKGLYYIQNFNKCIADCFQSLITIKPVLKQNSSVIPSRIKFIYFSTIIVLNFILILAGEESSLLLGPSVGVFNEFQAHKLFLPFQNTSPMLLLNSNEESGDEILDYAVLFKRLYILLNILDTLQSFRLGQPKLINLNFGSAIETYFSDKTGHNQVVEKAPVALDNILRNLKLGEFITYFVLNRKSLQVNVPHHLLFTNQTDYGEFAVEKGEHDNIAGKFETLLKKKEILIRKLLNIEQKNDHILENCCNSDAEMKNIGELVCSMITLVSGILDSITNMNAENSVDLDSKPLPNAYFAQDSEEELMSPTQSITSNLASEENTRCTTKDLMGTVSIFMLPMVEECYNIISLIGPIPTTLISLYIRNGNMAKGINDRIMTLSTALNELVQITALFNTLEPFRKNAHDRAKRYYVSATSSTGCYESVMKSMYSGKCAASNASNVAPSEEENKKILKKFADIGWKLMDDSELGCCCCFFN
Procedure, shortened: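 For each ungapped eight-base word taken together with its reverse complement, the Universal PBM Analysis Suite assigned an E-score. Binding data came from GST-tagged yeast transcription factors, applied at about 100-200 nM, on universal all-10-mer Agilent arrays made double-stranded by primer extension. Fluorescent anti-GST marked bound protein, and scans were normalised with masliner.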

| Sequence | PBM E-score |
| --- | --- |
| ACATCTGA | -0.0959 |
| ATATCAAT | 0.245 |
| ATACGGCA | 0.0151 |
| ACGTGTAT | 0.105 |
| AACACTAG | 0.0881 |
| GGACAACC | -0.136 |
| CGAGGCCC | -0.19 |
| CCCTGAGA | -0.277 |
| CCAACGTA | 0.0497 |
| ATCCATGC | 0.0934 |
| GGTTTAGA | 0.0155 |
| AAGATCCG | -0.0767 |
| ACTGTGCC | -0.0903 |
| CTAACGAC | -0.0273 |
| TAGTATAA | 0.181 |
| GCGTCCCA | -0.312 |
| AAAGCCCT | -0.0951 |
| CGTAAGAC | -0.122 |
| ATCTGGGG | -0.162 |
| TACGCAGA | -0.0151 |
| TGAAACAA | 0.171 |
| AACCTCCG | -0.113 |

| Sequence | PBM E-score |
| --- | --- |
| GAGCGGAC | -0.325 |
| TATATCGA | 0.215 |
| ATTCACTA | 0.175 |
| CCAGGACC | -0.243 |
| GTGTACCA | 0.108 |
| GATGTGGC | -0.209 |
| CTCGCGTA | 0.012 |
| CATTGTCA | 0.0329 |
| GACTTCTC | 0.113 |
| CGAAAGCA | 0.169 |
| AGGTAGAC | -0.212 |
| ATAGGGTC | -0.169 |
| CAACGTGG | -0.00282 |
| ACCATTAC | 0.0447 |
| CCAACCCC | -0.15 |
| TGCACCCA | -0.062 |
| GTTAGCTA | -0.0877 |
| ATCAAATG | 0.216 |
| GCAGACAC | 0.0165 |
| GTTAAGCA | -0.0464 |
| CCGGAATA | 0.412 |
| AGAATGCA | 0.178 |

| Sequence | PBM E-score |
| --- | --- |
| CGGCATGC | -0.102 |
| ACTAGGGG | -0.318 |
| TGCCTACA | -0.0912 |
| AGGTATAA | 0.226 |
| CGTCGTGC | 0.104 |
| GCGGGGAC | -0.22 |
| GTGGTTAA | 0.185 |
| AATGTAAA | 0.21 |
| AAGTGTCG | 0.158 |
| CGTCGGTC | 0.0622 |
| TACTTCCA | 0.0981 |
| ATCCACAC | -0.00864 |
| GAGCACGA | -0.022 |
| CGCGCTAG | -0.0223 |
| ACTAATCG | 0.122 |
| GCCATACA | 0.107 |
| GATGATCA | 0.0749 |
| GGCCGTAA | -0.0992 |
| ATAGGAGA | -0.305 |
| AGCTAGAT | -0.0653 |
| CCCCTTGA | -0.0989 |
| TAGGTTCA | 0.133 |

| Sequence | PBM E-score |
| --- | --- |
| CCATATGG | -0.163 |
| AAGCAGGA | -0.0289 |
| TCTGCCAA | -0.0421 |
| GGCCTTAA | -0.00592 |
| AATGCGGA | 0.114 |
| AGACGATA | 0.0503 |
| GGGCTGTA | -0.217 |
| TACCGGTA | 0.0603 |
| ATGAGAGA | 0.126 |
| ATGTGACC | -0.0585 |
| AACCAAGT | 0.115 |
| CTGAGTCA | -0.0168 |
| CATACCGA | -0.052 |
| CCCCCAGC | -0.282 |
| AGTCTGCC | -0.0468 |
| AACCGAAA | 0.167 |
| AAGACTTA | 0.00248 |
| AGACCTGC | -0.179 |
| CGACTGGA | -0.17 |
| GGTCCCAA | -0.145 |
| CCTGGTCA | -0.128 |
| CACGCATG | -0.112 |

| Sequence | PBM E-score |
| --- | --- |
| AGATCGTG | -0.0279 |
| AAGGCCCA | -0.191 |
| AATCATCT | 0.0572 |
| ACCTATCA | -0.0374 |
| CTATACGA | 0.0101 |
| CACGGCGG | -0.168 |
| AAGATAAG | 0.0844 |
| ACCTAGTA | -0.158 |
| TTCTGCAA | 0.106 |
| ATACGCAT | 0.195 |
| ATATGCTC | 0.154 |
| CATTCTGA | 0.142 |
| GGATGGAC | -0.0795 |
| ACAGTTCA | 0.232 |
| CGCCTCCA | 0.0528 |
| ATCACTGC | 0.0655 |
| GTCTGTAA | -0.0329 |
| CTACCCGC | 0.0191 |
| CCTCCCGA | -0.203 |
| TCACTGGA | 0.00252 |
| GAACGATC | -0.0144 |
| CACCCTAA | 0.103 |
